Measured values published in the antibiotic and cytotoxicity screens of Wong et al. (2023).
The other results are listed elsewhere or left out.

These compounds were tested on S. aureus RN4220 (assay: growth inhibition call (relative growth <= 0.2)). Details: 50 µM.

Growth inhibition call, inactive:
Cc1cc(C(=O)O)c(C#N)c(N)n1
COc1ccc(S(=O)(=O)N(C)C[C@H]2Oc3cc(C#CC4CCCC4)ccc3S(=O)(=O)N([C@H](C)CO)C[C@H]2C)cc1
C[C@H](CO)N1C[C@H](C)[C@@H](CN(C)C(=O)C2CCCCC2)OCCCC[C@H](C)Oc2ccc(NC(=O)c3ccccc3)cc2C1=O
CN1CC2(CCNCC2)OC1=O
C[C@@H]1CN([C@@H](C)CO)C(=O)c2cc(/C=C/c3ccccc3)cnc2O[C@H]1CN(C)C(=O)Nc1ccc(C(F)(F)F)cc1
COCCOC(=O)N1C(=O)[C@@]2(c3cc(C#Cc4ccc(OC)cc4)ccc31)[C@H](C(=O)NC[C@H](O)c1ccccc1)[C@H]1C(=O)O[C@H](c3ccccc3)[C@H](c3ccccc3)N1[C@@H]2c1ccc(O)cc1
C[C@@H]1CN([C@H](C)CO)C(=O)c2cccc(NC(=O)Nc3ccc(C(F)(F)F)cc3)c2O[C@@H]1CN(C)C(=O)Nc1cccc2ccccc12
NS(=O)(=O)c1cc2c(cc1Cl)NCNS2(=O)=O
